# Data taken from the supplement of paper PMC9135407.
# Where “and” joins values, the source holds several entries; their conditions need not be identical. Identical values can stand only once. Counter-ions that a name gives are not always drawn. Hit rate of the full screen: of about 5,800 compounds, about 620 (11%) showed activity.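 Rule for the calls: active = score above a cut-off or among the top three wells of a plate; in these data no inactive exceeds 0.85.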 This is a selection; strong and weak results do not stand in their true shares.
# Test system: primary human hepatic stellate cells (donor 1)
# Experiment: scaled lipid accumulation score (0 = DMSO-like, 1 = nortriptyline-like); higher = stronger HSC inactivation (lipid re-accumulation), active = hit call of the paper
# Conditions: 48 h
# [1] = library stock concentration: 3.33 mM
# [2] = library stock concentration: 10 mM
# [3] = library stock concentration: 80 uM
# [4] = library stock concentration: 400 uM
# [5] = library stock concentration: 2 mM
smiles,measurement,setting,value
CC(NC(=O)C(O)c1cc(F)cc(F)c1)C(=O)NC1C(=O)N(C)c2ccccc2-c2ccccc21 (stereo not drawn),scaled lipid accumulation score,[1],inactive: 0.011
same,scaled lipid accumulation score,[2],inactive: 0.133
COc1cc2c(cc1-c1c(C)noc1C)ncc1[nH]c(=O)n([C@H](C)c3ccccn3)c12,scaled lipid accumulation score,[3],inactive: ≤ 0
same,scaled lipid accumulation score,[4],inactive: ≤ 0
same,scaled lipid accumulation score,[5],inactive: ≤ 0
same,scaled lipid accumulation score,[1],inactive: ≤ 0
same,scaled lipid accumulation score,[2],inactive: 0.004 and inactive: ≤ 0
CN(C)c1nc(N(C)C)nc(N(C)C)n1 [Altretamine],scaled lipid accumulation score,,inactive: ≤ 0
same,scaled lipid accumulation score,[1],inactive: ≤ 0
same,scaled lipid accumulation score,library stock concentration: 9.5 mM,inactive: ≤ 0
same,scaled lipid accumulation score,[2],inactive: ≤ 0 and inactive: 0.288 and inactive: ≤ -0.027
COc1cc(N2CCC(C(N)=O)CC2)ccc1Nc1nc(N)c(Cl)c(Nc2ccccc2S(=O)(=O)C(C)C)n1,scaled lipid accumulation score,[3],inactive: ≤ 0
same,scaled lipid accumulation score,[4],inactive: ≤ 0
same,scaled lipid accumulation score,[5],inactive: 0.025
same,scaled lipid accumulation score,[2],inactive: 0.537
COc1nccc(-c2c(-c3ccc(F)cc3)ncn2C2CCNCC2)n1,scaled lipid accumulation score,[4],inactive: ≤ -0.005
same,scaled lipid accumulation score,[5],inactive: 0.173
same,scaled lipid accumulation score,[2],inactive: ≤ -0.005
COc1cc2c(Oc3ccc4[nH]c(C)cc4c3F)ncnc2cc1OCCCN1CCCC1 [Cediranib (AZD2171)],scaled lipid accumulation score,[2],inactive: 0.678
COc1cc2c(Oc3ccc4[nH]c(C)cc4c3F)ncnc2cc1OCCCN1CCCC1 [Cediranib],scaled lipid accumulation score,[3],inactive: 0.077
same,scaled lipid accumulation score,[4],inactive: 0.464
same,scaled lipid accumulation score,[2],inactive: 0.693
CNc1cc(OC)c(C(=O)NC2CCN(Cc3ccccc3)C2C)cc1Cl (stereo not drawn) [Nemonapride],scaled lipid accumulation score,[2],inactive: 0.728
O=C(O)c1cc(-c2ccccc2)nc2ccccc12,scaled lipid accumulation score,[2],inactive: ≤ 0
O=C(O)c1cc(-c2ccccc2)nc2ccccc12 [Cinchophen],scaled lipid accumulation score,[1],inactive: ≤ 0
same,scaled lipid accumulation score,[2],inactive: 0.163
CC(=O)O[C@]1(C(C)=O)CC[C@H]2[C@@H]3C[C@H](C)C4=CC(=O)CC[C@]4(C)[C@H]3CC[C@@]21C [Medroxyprogesterone 17-acetate],scaled lipid accumulation score,[2],inactive: ≤ 0
same,scaled lipid accumulation score,library stock concentration: 16.4 mM,inactive: ≤ 0
CC(=O)O[C@]1(C(C)=O)CC[C@H]2[C@@H]3C[C@H](C)C4=CC(=O)CC[C@]4(C)[C@H]3CC[C@@]21C [Medroxyprogesterone acetate],scaled lipid accumulation score,[1],inactive: ≤ 0
same,scaled lipid accumulation score,library stock concentration: 5.2 mM,inactive: ≤ -0.001
same,scaled lipid accumulation score,[2],inactive: ≤ 0
CC(C)(C)c1nc2c3cc[nH]c(=O)c3c3cc(F)ccc3c2[nH]1 [Merck -5 (0.4 mM)],scaled lipid accumulation score,[4],inactive: ≤ -0.005
CC(C)(C)c1nc2c3cc[nH]c(=O)c3c3cc(F)ccc3c2[nH]1 [Merck -5 (2 mM)],scaled lipid accumulation score,[5],inactive: ≤ -0.005
CC(C)(C)c1nc2c3cc[nH]c(=O)c3c3cc(F)ccc3c2[nH]1 [Merck -5 (10 mM)],scaled lipid accumulation score,[2],inactive: 0.114
CC(C)(C)c1nc2c3cc[nH]c(=O)c3c3cc(F)ccc3c2[nH]1 [JAK Inhibitor I],scaled lipid accumulation score,[1],inactive: ≤ 0
CS(=O)(=O)CCNCc1ccc(-c2ccc3ncnc(Nc4ccc(OCc5cccc(F)c5)c(Cl)c4)c3c2)o1.Cc1ccc(S(=O)(=O)O)cc1.Cc1ccc(S(=O)(=O)O)cc1,scaled lipid accumulation score,[2],active: 1.23
CC(C)NCC(O)c1ccc2ccccc2c1 (stereo not drawn) [Pronetalol hydrochloride],scaled lipid accumulation score,[2],inactive: 0.107
CC(C)NCC(O)c1ccc2ccccc2c1 (stereo not drawn) [Pronethalol HCl],scaled lipid accumulation score,library stock concentration: 8.7 mM,inactive: 0.224
CC(C)NCC(O)c1ccc2ccccc2c1 (stereo not drawn) [Pronethalol hydrochloride],scaled lipid accumulation score,,inactive: 0.369
same,scaled lipid accumulation score,[2],inactive: 0.221
O.O.O.O.O.O.O.O.O.O.O.O.O.O.O.O.O=S(=O)([O][Al])OC[C@H]1O[C@@](COS(=O)(=O)[O][Al])(O[C@H]2O[C@H](COS(=O)(=O)[O][Al])[C@@H](OS(=O)(=O)[O][Al])[C@H](OS(=O)(=O)[O][Al])[C@H]2OS(=O)(=O)[O][Al])[C@@H](OS(=O)(=O)[O][Al])[C@@H]1OS(=O)(=O)[O][Al] [Sucralfate sodium (10% w/v in dmso)],scaled lipid accumulation score,library stock concentration: 900 uM,inactive: ≤ 0
CCCc1c(OCC(O)COc2ccc3c(=O)cc(C(=O)O)oc3c2CCC)ccc(C(C)=O)c1O (stereo not drawn),scaled lipid accumulation score,[2],inactive: ≤ -0.001
"Cc1ccc(NC(=O)c2ccc(CN3CCN(C)CC3)cc2)cc1Nc1nc(-c2cccnc2)cs1 [Masitinib (AB1010, Masivet) (2 mM)]",scaled lipid accumulation score,[5],active: 1.37
Cc1ccc([N+](=O)[O-])cc1S(=O)(=O)N(C)C,scaled lipid accumulation score,[2],inactive: ≤ 0 and inactive: ≤ -0.001
Cc1c(O)c(=O)ccn1C,scaled lipid accumulation score,[2],inactive: ≤ 0
CC(C)C[C@H](NP(=O)(O)O[C@H]1O[C@H](C)[C@@H](O)[C@H](O)[C@@H]1O)C(=O)N[C@@H](Cc1c[nH]c2ccccc12)C(=O)O [Phosphoramidon disodium],scaled lipid accumulation score,[2],inactive: ≤ 0
O=S(=O)(O)c1cc(O)ccc1O [Ethamsylate],scaled lipid accumulation score,,inactive: ≤ 0
same,scaled lipid accumulation score,[1],inactive: ≤ 0
same,scaled lipid accumulation score,[2],inactive: ≤ -0.001
c1ccc([C@H]2CN3CCSC3=N2)cc1 [Levamisole hydrochloride],scaled lipid accumulation score,,inactive: 0.068
same,scaled lipid accumulation score,library stock concentration: 8.3 mM,inactive: ≤ 0
same,scaled lipid accumulation score,[2],inactive: 0.052
CCCCC/C=C\C=C\[C@@H](O)CCCCCCCC(=O)O,scaled lipid accumulation score,library stock concentration: 100 uM,inactive: ≤ -0.021
